Measurements from PubChem BioAssay AID686978 (National Center for Advancing Translational Sciences (NCATS), 2013).
Among all 420,000 compounds or so, about 64,000 (15%) were called active. This list was built around the results that the source calls inconclusive (neither active nor inactive); the mix of calls is not that of the screen. The call rests on the fitted dose curve; in most records, active means well fitted inhibition curve with a large enough effect; inconclusive means small, poorly fitted or top-dose-only effect; inactive means flat fitted curve, though single readings scatter. No potency is given beside an inconclusive call; the fits are too rough.

Test: qHTS for Inhibitors of human tyrosyl-DNA phosphodiesterase 1 (TDP1): qHTS in cells in absence of CPT; further: nearly all actives have a fitted effect of over 55% in size
Conditions: DT40 Tdp1-/- hTDP1 cells, no CPT, ATP luminescence, 48 h; activity change, negative = growth inhibition: at 46.2 µM (top of the series) unless noted
Method in brief: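 Readout: luminescence from CellTiter-Glo after 30 min in the dark at RT. Cells: DT40 Tdp1-/- with stable hTDP1, 400/well. Exposure: compounds alone, ≥48 hr, 37 °C.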
On the % scale 0 is the no-effect control and ±100 the full control effect; potency means the concentration at half of the fitted maximal effect; tags describe the fitted curve by direction and shape.

Q: For `O=C(NCc1ccccc1Cl)c1ccc2oc(=O)n(Cc3ccccc3)c2c1`, which Potency is on record?
A: inconclusive [inhibitor, single point]

Q: Which Potency does the source give for `Cc1cc(C)n(-c2nc3ccccc3nc2N2CCN(c3cccc(C(F)(F)F)c3)CC2)n1` here?
A: inconclusive [inhibitor, single point]

Q: Which Potency does the source give for `Cc1ccccc1-c1cc2nc(OCC3CCCO3)n(C)c(=O)c2s1` (centres undefined) here?
A: inconclusive [inhibitor, single point]

Q: With `COc1cc(/C=N/N2CCOCC2)ccc1OCc1ccc(Cl)cc1` as the compound, how does the Potency read?
A: inconclusive [inhibitor, single point]

Q: For `O=C(O)CCCNc1cc(N2CCN(C(=O)c3ccco3)CC2)c2noc3c2c1C(=O)c1ccccc1-3`, which Potency is on record?
A: inconclusive [inhibitor, single point]

Q: Which Potency does the source give for `O=C(O)c1ccc(B(O)O)cc1` here?
A: inconclusive [inhibitor, single point]

Q: With `CCOC(=O)c1cc(C#N)c(N2CCCNCC2)nc1C(F)(F)F` as the compound, how does the Potency read?
A: inconclusive [inhibitor, single point]

Q: For `CCc1ccc([C@H]2C(C(=O)O)=C[C@@H](C(C)(C)C)N2S(=O)(=O)c2ccc(C)cc2)cc1`, which “activity change, negative = growth inhibition” value is on record?
A: inactive: -22.4%

Q: Which Potency does the source give for `Cc1cccc(-n2nc(C)c(C(=O)Nc3cc(C)ccc3C)c2-n2cccc2)c1` here?
A: inconclusive [inhibitor, single point]

Q: With `CN(CC(=O)Nc1ccccc1Br)C(=O)c1ccccc1OCc1ccccc1Cl` as the compound, how does the Potency read?
A: active: 18.4 µM

Q: Which Potency does the source give for `O=C(CSc1nc(-c2ccccc2)c(-c2ccccc2)[nH]1)NCCN1C(=O)CSC1=O` here?
A: active: 14.6 µM

Q: Which Potency does the source give for `CCOc1ccccc1C(=O)N1CCN(C(c2ccccc2)c2ccccc2)CC1` here?
A: inconclusive [inhibitor, single point]

Q: For `Cc1ccc(C(=O)Nc2cc(Cl)ccc2N2CCCCC2)s1`, which Potency is on record?
A: inconclusive [inhibitor, single point]

Q: Which “activity change, negative = growth inhibition” value does the source give for `On1nnc2ccccc21` here?
A: inactive: 12.8%

Q: For `CCCCc1cc(=O)oc2cc(OCC(=O)N3CCOCC3)ccc12`, which Potency is on record?
A: inconclusive [inhibitor, single point]

Q: For `Cc1nn2c(N)c(C#N)cnc2c1-c1ccccc1`, which Potency is on record?
A: inconclusive [inhibitor, single point]

Q: For `Clc1ccccc1Cn1c(/C=C/c2ccco2)nc2ccccc21`, which Potency is on record?
A: inconclusive [inhibitor, single point]

Q: Which Potency does the source give for `CCOC(=O)c1ccc2c(c1)NCc1cccc(OC)c1O2` here?
A: active: 10.3 µM

Q: With `O=C(NNc1ccccc1)c1sc2ccccc2c1Cl` as the compound, how does the Potency read?
A: inconclusive [inhibitor, single point]
